PubChem BioAssay AID2451 (National Center for Advancing Translational Sciences (NCATS), 2010)
About 2,100 (0.72%) of roughly 290,000 compounds were called active. The shares of active, inactive and inconclusive entries below differ from those in the screen. The call rests on the fitted dose curve; in most records, active means well fitted inhibition curve with a large enough effect; inconclusive means small, poorly fitted or top-dose-only effect, or effect the other way; inactive means flat fitted curve, though single readings scatter. Where the call is inconclusive, the potency comes from a doubtful curve fit.

Each compound was assayed against Fructose-bisphosphate aldolase (Giardia intestinalis (strain ATCC 50803 / WB clone C6)) (UniProt A8B2U2) (assay: qHTS Assay for Inhibitors of Fructose-1,6-bisphosphate Aldolase from Giardia Lamblia). Details: purified Giardia FBPA; activity, negative = inhibition: at 59.6 µM (top of the series) unless noted.
Summary of the method: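 40 nM FBPA preincubated 10 min at RT with compound (up to 57.5 uM final), then substrate plus GAPDH/TPI/NAD/arsenate coupling and diaphorase/resazurin added. Fluorescence read after 20 min at RT, 525/598 nm.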
Further: nearly all actives have a fitted effect of over 55% in size.
On the % scale 0 is the no-effect control and ±100 the full control effect; potency means the concentration at half of the fitted maximal effect; tags describe the fitted curve by direction and shape.

UniProt A8B2U2, sequence (A8B2U2 whole entry, looked up): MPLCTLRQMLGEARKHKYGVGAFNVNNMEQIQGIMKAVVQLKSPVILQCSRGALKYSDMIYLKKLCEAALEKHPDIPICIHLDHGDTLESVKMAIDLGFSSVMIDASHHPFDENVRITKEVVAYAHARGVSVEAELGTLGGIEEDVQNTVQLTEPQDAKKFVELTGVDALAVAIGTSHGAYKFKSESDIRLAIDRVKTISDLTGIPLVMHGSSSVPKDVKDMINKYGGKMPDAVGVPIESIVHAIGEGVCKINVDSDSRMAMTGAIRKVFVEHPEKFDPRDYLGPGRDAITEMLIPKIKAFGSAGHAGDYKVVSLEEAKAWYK

Row | SMILES | Potency | activity, negative = inhibition
1 | CN1CCC(NCCC(c2ccc(F)cc2)c2ccc(Cl)cc2)CC1 (stereo unspecified) | active: 14.1 µM | –
2 | O=C1C2=C(C(=O)c3ccccc31)C1O[C@](CCCCN3C(=O)c4ccccc4C3=O)(Cc3ccccc31)O2 | inconclusive: 3.16 µM [inhibitor, partial curve, poor fit] | –
3 | CCC(=O)c1ccccc1OCCN1CCN(CC)CC1 | inconclusive: 17.7 µM [inhibitor, partial curve] | –
4 | O=C(CSc1ncccn1)c1ccccc1Br | inactive | –
5 | Cc1c(/C=N/n2cnnc2)c2ccccc2n1C | – | inconclusive: 43.9% [activator]
6 | COC(=O)Cc1csc(Nc2ccccc2)n1 | inactive | –
7 | Cn1c(N/N=C/c2cccs2)cc(=O)n(C)c1=O | inconclusive: 19.9 µM [inhibitor, single point] | –
8 | Cc1ccc(C(=O)Nc2ccc(CC(=O)O)cc2)o1 | inactive | –
9 | Cc1ccc(C(=O)NC(=S)Nc2c(C)ccc3nsnc23)cc1 | inconclusive: 17.7 µM [inhibitor, single point] | –
10 | O=C(CNCCC1=CCCCC1)Nc1ccccc1N1CCCCCC1 | inconclusive: 17.7 µM [inhibitor, partial curve] | –
11 | O=C(Nc1ccc2ncccc2c1)c1ccccc1Br | inconclusive: 25.1 µM [inhibitor, single point] | –
12 | O=C(C1=C(O)C(=O)N(c2ncccn2)C1c1cccc(Cl)c1)c1ccco1 (stereo unspecified) | inconclusive: 17.8 µM [inhibitor, partial curve] | –
13 | COC(=O)/C(=C1/OC(=O)C(c2ccccc2)=C1O)c1ccccc1 | inconclusive: 17.7 µM [activator, single point] | –
14 | COc1cccc(N2C(=O)[C@H]3C(C(=O)c4cnccn4)=NN[C@H]3C2=O)c1 | inconclusive: 15.8 µM [inhibitor, partial curve] | –
15 | Cc1ccc(C(=O)/C=C\C(=O)c2ccc(C)cc2)cc1 | inactive | –
16 | COc1cc(C(=O)Nn2c(O)c(C3=c4ccccc4=NC3=O)sc2=S)ccc1O | inconclusive: 17.7 µM [inhibitor, single point] | –
17 | O/C(=C\c1nc2ccccc2nc1/C=C(\O)c1ccccc1)c1ccccc1 | active: 3.15 µM | –
18 | COc1ccc(S(=O)(=O)Nc2nnc(Cc3ccc(OC)c(OC)c3)s2)cc1 | inconclusive: 17.7 µM [activator, partial curve] | –
19 | CCOC(=O)C1/C(=N\O)CC(C)(O)C(C(=O)OCC)C1c1ccc(N(C)C)cc1 (stereo unspecified) | inconclusive: 19.9 µM [inhibitor, partial curve] | –
20 | CSCC[C@H](N)C(=O)N[C@@H](CCCN=C(N)N)C(=O)N[C@@H](CC(C)C)C(=O)N[C@@H](Cc1ccccc1)C(=O)N[C@H](C(=O)O)C(C)C | inactive | –
21 | Cn1c(C(=O)N2CCN(Cc3ccccc3)CC2)cc2c(=O)n(C)c3ccccc3c21 | inconclusive: 17.7 µM [inhibitor, single point] | –
22 | CCC(=O)NC(c1cccs1)c1cc([N+](=O)[O-])c2cccnc2c1O (stereo unspecified) | inconclusive: 44.6 µM [inhibitor, single point] | –
23 | Cn1cccc1/C=N/NC(=O)c1cc2ccccc2cc1O | inconclusive: 20 µM [inhibitor, single point] | –
24 | O=[N+]([O-])/C(C(Cl)=C(Cl)Cl)=C(\Nc1ccc(F)cc1)n1cncn1 | inconclusive: 17.7 µM [inhibitor, single point] | –

Row | SMILES | Potency | activity, negative = inhibition
25 | COc1ccccc1N=Nc1ccc(O)c2ncccc12 | inconclusive: 0.794 µM [inhibitor, full curve] | –
26 | COc1cccc(CNCc2ccc(SC)cc2)c1OC | inconclusive: 15.8 µM [inhibitor, partial curve] | –
27 | Cc1cccc(CNc2cc(-c3ccoc3)ncn2)c1 | inactive | –
28 | Cc1ccsc1C1NC(=O)c2c(sc3c2CCN(C)C3)N1 (stereo unspecified) | inconclusive: 15.8 µM [inhibitor, partial curve] | –
29 | C[CH2][Hg][S]c1ccccc1C(=O)O | active: 12.6 µM | –
30 | CC(/C=C1\SC(=S)N(NC(=O)c2ccc(C)cc2)C1=O)=C\c1ccccc1 | inactive | –
31 | Cc1[nH]n(-c2ccccc2)c(=O)c1/C=N/NC(=O)c1ccccc1F | inconclusive: 31.6 µM [activator, single point] | –
32 | COc1ccc2c(c1)-c1nc(/N=C/c3ccc(O)cc3)sc1CC2 | inconclusive: 15.8 µM [inhibitor, single point] | –
33 | Fc1ccccc1C1CC(c2ccco2)=Nc2ccccc2S1 (stereo unspecified) | inconclusive: 19.9 µM [inhibitor, partial curve] | –
34 | COC/C=C/C1=CC2=CC(=O)C(C)(OC(=O)C3CCCC3)C(=O)C2=CO1 (stereo unspecified) | inconclusive: 19.9 µM [inhibitor, single point] | –
35 | COc1ccc(CN2C=C3C(=O)C(C)(OC(=O)CCc4ccccc4)C(=O)C=C3C=C2c2ccc(C#N)cc2)cc1 (stereo unspecified) | inconclusive: 1.77 µM [inhibitor, partial curve] | –
36 | COc1ccc(-c2nc3ccccc3s2)cc1 | inactive | –
37 | COC(=O)CC1C(=O)NCCN1C(=O)CSc1nc2ccc([N+](=O)[O-])cc2s1 (stereo unspecified) | inactive | –
38 | C=CCNc1nc(-c2ccc(OC)cc2OC)cs1 | inconclusive: 44.6 µM [inhibitor, single point] | –
39 | COc1ccc(-n2c(O)c(/C=N/NS(=O)(=O)c3ccc(C)cc3)c3ccccc3c2=O)cc1OC | inactive | –
40 | O=C(/C=C/c1cccc(Cl)c1)Nn1c(-c2cccs2)nc2ccccc2c1=O | inactive | –
41 | COCCNC(=O)/C(C#N)=C/c1ccc(C(=O)O)cc1 | inactive | –
42 | C/C(CC1CC(C)OC1=O)=N\NC(N)=S (stereo unspecified) | inconclusive: 11.2 µM [inhibitor, partial curve] | –
43 | O=C(CCCc1c[nH]c2ccccc12)NCc1cccs1 | inactive | –
44 | NC(=O)c1c(N)sc2c1CCCCC2 | inconclusive: 17.7 µM [inhibitor, partial curve] | –
45 | O=c1c2ccccc2cnn1-c1ccc2ccccc2c1 | inactive | –
46 | CC1(C)OC(=O)C(=NNc2ccc(Cl)cc2)C(=O)O1 | inactive | –
47 | COC(=O)/C(=C1\OC(=O)C(c2ccccc2)C1=O)c1ccccc1 (stereo unspecified) | inconclusive: 17.7 µM [activator, single point] | –
48 | N#CC1=C(N)Oc2c(ccc3ccccc23)C1c1cccs1 (stereo unspecified) | inconclusive: 19.9 µM [inhibitor, partial curve] | –

Row | SMILES | Potency | activity, negative = inhibition
49 | COc1cc2ccc(=O)oc2c(O)c1OCC=C(C)C | inconclusive: 17.7 µM [inhibitor, single point] | –
50 | CCN(C(=O)Cn1c(=O)n2nc(CCn3nc(C)cc3C)nc2c2ccccc21)c1cccc(C)c1 | inactive | –
51 | O=C(c1cccc(S(=O)(=O)N2CCc3ccccc3C2)c1)N1CCN(c2ccc(O)cc2)CC1 | inactive | –
52 | COc1cc2c(cc1OC)-c1c(oc3cc(O)cc(O)c3c1=O)CO2 | inconclusive: 15.8 µM [inhibitor, single point] | –
53 | Cc1ccc(C(=O)N2CCN(c3ncccn3)CC2)cc1NC1=NC2CS(=O)(=O)CC2S1 (stereo unspecified) | inconclusive: 28.2 µM [inhibitor, single point] | –
54 | CC1CCc2cc(F)cc3c(=O)c(C(=O)O)cn1c23 (stereo unspecified) | inconclusive: 25.1 µM [inhibitor, partial curve] | –
55 | CCOC(=O)c1ccc(NC(=O)c2nc[nH]c2C(=O)N[C@@H](CCCCNC(=O)OC(C)(C)C)C(=O)OC(C)(C)C)cc1 | inconclusive: 56.1 µM [inhibitor, single point] | –
56 | CN(C)C(=S)Nc1nc2ccccc2s1 | inconclusive: 2.81 µM [inhibitor, single point] | –
57 | COc1ccc(CN2C(=O)Cc3c2nc(N)c2c(N)nc(N4CCOCC4)c(C#N)c32)cc1 | inconclusive: 17.7 µM [inhibitor, partial curve] | –
58 | O=C(NC(Cc1c[nH]c2ccccc12)C(=O)O)c1ccc2c(c1)OCO2 (stereo unspecified) | inactive | –
59 | O=C1NC(=S)N(Cc2ccco2)C(=O)/C1=C\c1cccs1 | active: 15.8 µM | –
60 | C#CCOCCOCCOCCNc1nc(N2CCN(C(=O)[C@H]([C@@H](C)CC)n3cc([C@@H](N)CC(C)C)nn3)CC2)nc(N2CCN(C(=O)[C@H]([C@@H](C)CC)n3cc([C@@H](N)CC(C)C)nn3)CC2)n1 | inactive | –
61 | COc1ccccc1NCC(=O)c1ccc(C)c(C)c1 | inactive | –
62 | Cc1ccc(C(=O)/C=C/Nc2cccc(O)c2)cc1 | inactive | –
63 | O=C(NC(=S)N1CCN(C2CCCCC2)CC1)c1ccccc1 | inconclusive: 15.8 µM [inhibitor, single point] | –
64 | COc1cc(C(=O)NNC(=S)NC(=O)c2ccc(F)cc2)cc(OC)c1OC | inconclusive: 19.9 µM [activator, single point] | –
65 | CCN(CC)C(=O)C1CCCN(Cc2ccc(N(C)C)cc2)C1 (stereo unspecified) | inconclusive: 25.1 µM [inhibitor, partial curve] | –
66 | Cc1ccccc1CN(C)C1CCN(C)CC1 | inconclusive: 31.6 µM [inhibitor, partial curve] | –
67 | O=C(Nc1nc(-c2ccco2)c(-c2ccco2)s1)C1CC(=O)N(c2ccc3c(c2)OCCO3)C1 (stereo unspecified) | inconclusive: 19.9 µM [inhibitor, partial curve] | –
68 | Nc1cccc(CN2CCCC2)c1 | inconclusive: 31.5 µM [inhibitor, single point] | –
69 | C[C@]12C=CC(=O)C=C1CCC1C2=CC[C@]2(C)[C@@H](C(=O)CN3CCN(c4cc(N5CCCC5)nc(N5CCCC5)n4)CC3)CC[C@@H]12 (stereo partly specified) | inactive | –
70 | CCN1/C(=N\N)c2cccc3cccc1c23 | active: 9.98 µM | –
71 | C/C(CS(=O)(=O)c1ccc(Cl)c(Cl)c1)=N/NC(N)=S | inconclusive: 7.92 µM [inhibitor, partial curve] | –
